According to a compilation of properties of binary mixtures (doi:10.1021/acs.jced.0c00987):
The densities may have been worked out from excess volumes.

Test: xn = mol fraction of the nth substance listed
Conditions: 100 kPa

OCCN(CCO)CCO + CCOS(=O)(=O)[O-].CC[n+]1ccn(C)c1
mass density [kg/m3]
Conditions	293.15 K	298.15 K	303.15 K	313.15 K
x1 = 0.52	1187	1184	1181	1174
x1 = 0.617	–	1172	–	1162
x1 = 0.703	1166	1162	1160	1153
x1 = 0.787	1155	–	1149	1143
x1 = 0.866	1144	1140	–	1131
x1 = 0.929	1135	–	–	1123
x1 = 0.967	–	–	–	1117
x1 = 1	1122	1119	1116	1111
x2 = 0.003	1124	1121	1118	1112
x2 = 0.006	1124	1121	–	1113
x2 = 0.019	1126	1123	1121	1115

OCCO + CCOS(=O)(=O)[O-].CC[n+]1ccn(C)c1
x1 = 1
Conditions	mass density [kg/m3]
293.15 K	1113
313.15 K	1099

OCCN(CCO)CCO + CC[n+]1ccn(C)c1.O=S(=O)([O-])C(F)(F)F
mass density [kg/m3]
Conditions	293.15 K	298.15 K	303.15 K	313.15 K
x1 = 0.084	–	1365	–	1353
x1 = 0.167	1352	1348	–	–
x1 = 0.305	1321	1317	1313	1305
x1 = 0.426	1293	–	1285	1278
x1 = 0.539	1265	–	1257	1250
x1 = 0.641	1239	1236	–	1226
x1 = 0.723	1214	1211	1208	–
x1 = 0.802	1189	1185	1182	1176
x1 = 0.875	1167	–	1161	1155
x1 = 0.94	1145	1141	1138	1132
x1 = 0.969	1133	1130	1127	1121
x1 = 1	1122	1119	1116	1111
x2 = 0.003	1124	1122	1119	1113
x2 = 0.006	1125	1123	–	–
x2 = 0.017	1130	1127	1124	1118

OCCO + CC[n+]1ccn(C)c1.O=S(=O)([O-])C(F)(F)F
x1 = 1
Conditions	mass density [kg/m3]
293.15 K	1113
298.15 K	1109
303.15 K	1106
313.15 K	1099

CCOS(=O)(=O)[O-].CC[n+]1ccn(C)c1 + OCC(O)CO
mass density [kg/m3]
Conditions	293.15 K	298.15 K	303.15 K	313.15 K
x1 = 0.002	1260	1257	1254	–
x1 = 0.004	1260	1256	1254	–
x1 = 0.012	1258	1255	1252	1245
x2 = 0.123	1240	–	1233	1226
x2 = 0.264	1239	1235	–	1225
x2 = 0.39	1238	1235	1231	1224
x2 = 0.5	–	1235	–	1225
x2 = 0.601	1239	–	1233	1225
x2 = 0.703	1242	1238	1235	1228
x2 = 0.794	1245	1241	1238	1231
x2 = 0.901	1252	1248	1245	1238
x2 = 0.958	1256	1253	1250	–
x2 = 0.98	1258	1255	–	1245
